Results reported in paper PMC4336329 (PLoS ONE, 2015).
Screen size: about 310,000 compounds; about 14,000 (4.5%) showed an effect of 50% or more. Effects have a minus sign here. The list shows a part of the results.

Target: human ether-à-go-go-related gene (hERG) potassium channel (human, UniProt Q12809)
Assay: primary screen, population patch clamp on CHO cells stably expressing hERG
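Note: peak tail current of the secondary pulse compared with the same well before compound.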

Sequence of human ether-à-go-go-related gene (hERG) potassium channel (Q12809 whole entry, looked up): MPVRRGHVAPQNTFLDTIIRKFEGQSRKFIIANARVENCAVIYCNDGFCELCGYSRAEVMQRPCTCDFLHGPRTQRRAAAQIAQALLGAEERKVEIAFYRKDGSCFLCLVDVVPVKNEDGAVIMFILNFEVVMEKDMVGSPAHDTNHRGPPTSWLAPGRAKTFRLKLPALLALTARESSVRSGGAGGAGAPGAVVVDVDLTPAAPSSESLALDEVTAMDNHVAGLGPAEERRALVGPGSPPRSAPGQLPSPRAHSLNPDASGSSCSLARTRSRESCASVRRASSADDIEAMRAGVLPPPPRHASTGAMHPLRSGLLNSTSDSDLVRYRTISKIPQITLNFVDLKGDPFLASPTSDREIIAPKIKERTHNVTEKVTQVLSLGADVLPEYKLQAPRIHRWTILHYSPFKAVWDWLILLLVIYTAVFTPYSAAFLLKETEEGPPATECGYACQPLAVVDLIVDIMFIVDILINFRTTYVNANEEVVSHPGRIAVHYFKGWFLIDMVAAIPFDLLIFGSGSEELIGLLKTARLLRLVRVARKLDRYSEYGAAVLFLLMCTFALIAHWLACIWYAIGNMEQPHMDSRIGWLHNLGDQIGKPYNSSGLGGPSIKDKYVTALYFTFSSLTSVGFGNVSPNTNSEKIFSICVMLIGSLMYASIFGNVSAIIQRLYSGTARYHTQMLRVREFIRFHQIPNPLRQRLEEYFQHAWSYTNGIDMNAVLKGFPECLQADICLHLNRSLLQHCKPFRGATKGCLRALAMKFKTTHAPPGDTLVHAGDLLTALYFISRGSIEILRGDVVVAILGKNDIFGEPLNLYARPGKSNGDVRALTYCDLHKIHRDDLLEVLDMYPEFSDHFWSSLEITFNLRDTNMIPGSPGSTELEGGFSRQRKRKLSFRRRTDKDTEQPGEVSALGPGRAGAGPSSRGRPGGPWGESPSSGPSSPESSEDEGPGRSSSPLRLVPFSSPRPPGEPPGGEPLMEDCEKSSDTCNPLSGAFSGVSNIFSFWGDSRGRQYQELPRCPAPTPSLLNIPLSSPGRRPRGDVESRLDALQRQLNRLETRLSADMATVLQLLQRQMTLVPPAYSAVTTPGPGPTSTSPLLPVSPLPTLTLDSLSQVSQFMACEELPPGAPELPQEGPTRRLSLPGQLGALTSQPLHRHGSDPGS

| SMILES | hERG current change (%, negative = inhibition) at 10uM [%] |
| --- | --- |
| CCNC(=S)Nc1ccc2c(c1)oc1ccccc12 | 5.83 |
| CCOC(=O)c1cccc(NC(=O)c2cnccn2)c1 | -3.79 |
| Cc1ccccc1NC(=O)COC(=O)c1c(-c2ccccc2)noc1C | -4.62 |
| Cl.N#Cc1cccc(C(c2nnnn2Cc2ccccc2)N2CCCC2)c1 (stereo not drawn) | -22.7 |
| CCC(CC)CN1CCN=C1N(C)C | -4.45 |
| Cc1ccc(-n2ncc3c(NCCCOC(C)C)ncnc32)c(C)c1 | -2.69 |
| CCOc1ccc(S(=O)(=O)N2CCCCC2)cc1NC(=O)Cc1ccsc1 | 2.15 |
| COc1ccc(/C=C2\SC(=O)N(CCC(=O)N3CCN(C)CC3)C2=O)cc1 | -17.7 |
| COc1ccc(-c2ccccc2)c2oc(-c3ccco3)cc(=O)c12 | 6.83 |
| CCN(Cc1ccccc1)CC(O)COc1ccccc1.Cl (stereo not drawn) | -25.7 |
| COC(=O)CN1C(=O)Nc2ccc(C)cc2C1c1ccccc1 (stereo not drawn) | 14.3 |
| O=C(Nc1ccc(F)cc1)c1ccc2ncsc2c1 | 3.73 |
| COc1ccc(NC(=O)CN(C)C(=O)C2=COCCO2)cc1 | 13.4 |
| CCOc1ccc(CN2CCN(Cc3cc4c(cc3Cl)OCO4)CC2CCO)cc1 (stereo not drawn) | -73.3 |
| Cc1nn(C(C)C(=O)N2CCc3ccccc32)c(C)c1[N+](=O)[O-] (stereo not drawn) | 10 |
| Nc1ncnc2nc(N3CCN(C(=O)c4ccccc4)CC3)[nH]c12 | 1.04 |
| Cc1cc(Br)ccc1NC(=O)CN(C)Cc1cccs1 | 2.68 |
| Nc1c(C(=O)NCc2ccccc2)nnn1Cc1ccc(F)cc1 | 17.5 |
| C=CCn1c(COc2cccc(C)c2)nnc1SCn1nnc2ccccc2c1=O | -5.37 |
| CC(C)NC(=O)COc1nncc2ccccc12 | 23.9 |
| COc1ccc(C2=C(C=Nc3c(C)n(C)n(-c4ccccc4)c3=O)C(c3ccccc3C)c3ccccc3O2)cc1OC (stereo not drawn) | 11.7 |
| O=C(CCN1C(=O)CSc2ccccc21)Nc1cccc(C(F)(F)F)c1 | -43.5 |
| COC(=O)CNC(=O)COC(=O)c1ccc(Cl)nc1 | 51.1 |

| SMILES | hERG current change (%, negative = inhibition) at 10uM [%] |
| --- | --- |
| COc1ccccc1C(=O)NCCC(=O)N(C)CC(=O)Nc1c(Cl)cccc1Cl | -3.13 |
| OCC1(CCc2ccccc2)CCN(Cc2cccn2-c2cccnc2)CC1 | -49.4 |
| N#Cc1c(C(F)(F)F)cc(-c2ccccc2)nc1SCC(=O)Nc1sc2c(c1C#N)CCC2 | 8.19 |
| COCCCN1C(=O)C(=O)/C(=C(/O)c2ccc3c(c2)CC(C)O3)C1c1cccnc1 (stereo not drawn) | 6.56 |
| COc1ccc(C(=O)Nc2c(O)ccc3ccccc23)cc1OC | 0.249 |
| COc1ccc(C2=NOC(C(=O)N3CCOCC3)C2)cc1OC (stereo not drawn) | 11.6 |
| CC(/C=N/n1c(-c2ccco2)n[nH]c1=S)=C\c1ccccc1 | 11.7 |
| CCN(CC)CCCN1C(=O)C(=O)/C(=C(/O)c2ccc(OC)cc2)C1c1ccco1 (stereo not drawn) | 15.6 |
| Cc1ccc(C(=O)N/C(=C/c2cccs2)C(=O)NCC2CCCO2)cc1 (stereo not drawn) | -9.01 |
| Cc1cccc(NC(=O)CCNC(=O)c2ccc(Br)cc2)c1C | 17.5 |
| CCOC(=O)N/N=C\c1ccc([N+](=O)[O-])s1 | 5.72 |
| CN(C(=O)c1ccc2c(c1)C(=O)N(CCC1=CCCCC1)C2=O)C1CCCCC1 | -11.1 |
| CC(=O)N/C(=C\c1ccccc1)C(=O)OCC(=O)c1ccccc1 | 9.41 |
| Cc1ccc(C)c(CN2CCCN(Cc3cc(C)ccc3C)S2(=O)=O)c1 | 20.8 |
| COc1ccc(C(=O)C(CO)Oc2ccccc2OC)cc1OC (stereo not drawn) | 5.98 |
| COc1cccc(C(=O)NCC2CCN(c3ccc(S(=O)(=O)N4CCOCC4)cc3)CC2)c1 | -22.9 |
| CN(CC(=O)Nc1ccccc1-c1ccccc1)Cc1ccccc1Cl | 28.2 |
| CCCn1nnnc1SCC(=O)NCc1ccccc1 | 0.33 |
| CCCOc1ccc(C(=O)c2nc3c(n2O)CCCC3)cc1 | 16.1 |
| O=C(CSc1nnc(SCc2ccc(Cl)cc2)s1)N/N=C/c1ccccc1Cl | -9.5 |
| O=C(NCCCN1CCCC1=O)c1ccc(S(=O)(=O)Nc2cccc(C(F)(F)F)c2)cc1 | -5.71 |
| O=C(OCc1ccc([N+](=O)[O-])cc1)c1cnc(Cl)c(Cl)c1 | 31.8 |
